Assay results taken from PubChem BioAssay AID1030 (National Center for Advancing Translational Sciences (NCATS), 2008).
The whole screen tested about 220,000 compounds, of which about 16,000 (7.3%) were called active. Inconclusive results, whose numbers are uncertain, are shown with a selection of clear calls. Calls come from the whole dose curve; as a rule, active = well fitted inhibition curve with a large enough effect (not every such curve was filed as active); inconclusive = small, poorly fitted or top-dose-only effect, or another doubt; inactive = no such curve, though single readings can be large or run the other way. Potencies of inconclusive entries are left out as doubtful fits.

What follows are compounds tested against Aldehyde dehydrogenase 1A1 (Homo sapiens) (UniProt P00352) (assay: qHTS Assay for Inhibitors of Aldehyde Dehydrogenase 1 (ALDH1A1)). Conditions: Purified ALDH1A1, NADH fluorescence, propionaldehyde substrate; series mostly up to 75.3 µM.
Sequence of UniProt P00352 (P00352 whole entry, looked up): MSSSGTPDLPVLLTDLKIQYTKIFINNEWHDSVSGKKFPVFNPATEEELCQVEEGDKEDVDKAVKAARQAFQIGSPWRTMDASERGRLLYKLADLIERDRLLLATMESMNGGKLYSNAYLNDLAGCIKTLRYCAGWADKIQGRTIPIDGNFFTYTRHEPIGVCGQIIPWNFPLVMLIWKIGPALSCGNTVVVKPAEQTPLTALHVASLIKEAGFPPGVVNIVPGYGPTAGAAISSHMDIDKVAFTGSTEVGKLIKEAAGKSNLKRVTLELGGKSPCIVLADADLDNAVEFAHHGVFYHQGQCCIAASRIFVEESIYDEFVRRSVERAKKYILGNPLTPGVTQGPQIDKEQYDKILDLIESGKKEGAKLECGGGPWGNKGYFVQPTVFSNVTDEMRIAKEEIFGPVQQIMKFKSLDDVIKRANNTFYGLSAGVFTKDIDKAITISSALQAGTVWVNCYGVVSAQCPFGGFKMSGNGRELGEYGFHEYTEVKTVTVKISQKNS
Potency is the fitted concentration of half-maximal effect; tags give direction and shape of the fitted curve.
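Throughout, for activity, negative = inhibition: plate controls were no enzyme wells and a reference inhibitor.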

Row | Compound | Potency | activity, negative = inhibition
1 | CCOC(=O)Cn1nc(C)n(-c2ccc(C(C)C)cc2)c1=O | inactive | 
2 | COc1ccc(Nc2nc3c(C)cccc3cc2C#N)c(OC)c1 | inactive | 
3 | CCO/C=C1\C(=O)N(CC)c2ccccc21 | inconclusive [inhibitor, single point] | 
4 | S=C(NCc1cccnc1)Nc1ccc(Oc2ccccc2)cc1 | active: 31.6 µM | 
5 | CS(=O)(=O)N(CC(=O)Nc1ccc2c(c1)OCO2)c1ccccc1 | inconclusive [inhibitor, single point] | 
6 | COc1ccc(C(=O)Nc2ccccc2-c2nnn(CC(=O)NCc3ccco3)n2)cc1 | inconclusive [inhibitor, single point] | 
7 | CCOC(=O)c1sc2ccccc2c1OC(=O)c1ccc(C)cc1 | inconclusive [inhibitor, partial curve] | 
8 | O=C(N/N=C/c1c[nH]c2ccccc12)c1cc(-c2ccc(-c3ccccc3)cc2)n[nH]1 | inactive | 
9 | Cc1nn(Cc2cccc(C(=O)N3CCCC(C)C3)c2)c(C)c1[N+](=O)[O-] (stereo not drawn) | inconclusive [inhibitor, partial curve, poor fit] | 
10 | O=c1cc(O)nc(SCc2ccccc2)n1-c1ccc(F)cc1 | inactive | 
11 | CCn1c(-c2ccc(Cl)cc2)n[nH]c1=S | inactive | 
12 | CCOC(=O)c1cc(-c2ccc(OC)cc2)n(CCC(=O)NC2CCN(Cc3ccccc3)CC2)c1C | inactive | 
13 | Nc1nnc(SCC(=O)NC23CC4CC(CC(C4)C2)C3)s1 | inconclusive [inhibitor, single point] | 
14 | CCOC(=O)N1CCN(C(=O)c2cccn3c(=O)c4c5c(sc4nc23)CCCC5)CC1 | inconclusive [inhibitor, single point] | 
15 | CC(C)NC(=O)CSc1nc(N)c(-c2ccccc2)c(=O)[nH]1 | inconclusive [inhibitor, single point] | 
16 | COc1ccc(C(=O)COc2ccc(F)cc2)c(O)c1C | inactive | 
17 | O=C(CSc1nnnn1-c1ccccc1)Nc1ncc2c(n1)CC(c1ccco1)CC2=O (stereo not drawn) | active: 5.01 µM | 
18 | O=C(NC(=S)Nc1ccccc1C(F)(F)F)c1ccccc1F | inactive | 
19 | CCN=C(N)CSS(=O)(=O)O |  | inactive: -6.59% [at 13.5 µM]
20 | O=C(NCc1ccccc1)c1ccc(CS(=O)(=O)Cc2ccccc2F)o1 | active: 12.6 µM | 
21 | Cc1cc(C#N)c(C)c(SCc2[nH]nc3c2C(c2ccccc2)C(C#N)=C(N)O3)n1 (stereo not drawn) | inconclusive [inhibitor, single point] | 
22 | NC(=O)CSc1nnc2ccc(-c3ccc(F)cc3)nn12 | inconclusive [inhibitor, partial curve] | 
23 | COc1cc(C(=S)N2CCCC2)cc(OC)c1OS(=O)(=O)c1ccc(NC(C)=O)cc1 | inconclusive [inhibitor, single point] | 
24 | COC(=O)c1ccc(CNC(=O)COC(=O)c2ccc(N(C)C)cc2)cc1 | inactive | 

Row | Compound | Potency | activity, negative = inhibition
25 | C[C@H](O)C(=O)Nc1c(I)c(C(=O)NC(CO)CO)c(I)c(C(=O)NC(CO)CO)c1I | inactive | 
26 | O=C(CNC(=O)c1cccs1)c1ccc([N+](=O)[O-])cc1 | inconclusive [inhibitor, partial curve] | 
27 | COC(=O)c1[nH]c2ccccc2c1NC(=O)CN1CCCc2ccccc21 | inconclusive [inhibitor, single point] | 
28 | S=c1[nH]nc(-c2ccc3ccccc3n2)o1 | inconclusive [inhibitor, single point] | 
29 | CC(=O)c1cccc(NC(=O)Cn2cc3c(n2)CCCC3)c1 | inconclusive [inhibitor, partial curve] | 
30 | COc1ccc2oc(-c3ccc(C)c(NC(=O)CSc4ccc(Cl)cc4)c3)nc2c1 | inconclusive [inhibitor, partial curve] | 
31 | S=c1[nH]cc(-c2ccccc2)n1-c1cccc(Cl)c1 | inconclusive [inhibitor, full curve, poor fit] | 
32 | Nc1[nH]nc2nc(N3CCOCC3)nc(-c3ccccc3)c12 | inconclusive [inhibitor, full curve, poor fit] | 
33 | COCCN1Cc2cccc(C(=O)NC(C)c3cccs3)c2C1=O (stereo not drawn) | inconclusive [inhibitor, partial curve, poor fit] | 
34 | CC1CCCC(NCC(O)COC(c2ccc(F)cc2)c2ccc(F)cc2)C1C (stereo not drawn) | inconclusive [inhibitor, single point] | 
35 | Nc1c(C(=O)c2ccccc2)sc2snc(SCC(=O)c3ccccc3)c12 | active: 10 µM | 
36 | CCOc1ccccc1NC(=O)CN1C(=O)C(=O)N(Cc2ccco2)C1=O | inactive | 
37 | O=C(NCc1ccc(N2CCCC2=O)cc1)NC1CCCCC1 | inactive | 
38 | CC(C)NCC#CCOc1ccc(Cl)cc1 | active: 2.38 µM | 
39 | Nc1ccc(C(=O)OCC(=O)N2CCOCC2)cc1[N+](=O)[O-] | inactive | 
40 | S=C(Nc1ccccc1)N1N=CCC1c1ccccc1 (stereo not drawn) | inconclusive [inhibitor, partial curve] | 
41 | Cc1cnc(CNc2nc(-c3cccnc3)nc3ccccc23)cn1 | inconclusive [inhibitor, single point] | 
42 | CC1CCc2c(C(=O)NCCCN3CCOCC3)csc2C1 (stereo not drawn) | inconclusive [inhibitor, single point] | 
43 | CC(=O)Nc1ccc(/C=N/NC(=O)c2cc3cc(C)ccc3nc2C)cc1 | inconclusive [inhibitor, single point] | 
44 | Cc1ccn2cc(CCNC(=O)C3CCCCC3)nc2c1 | inconclusive [inhibitor, partial curve] | 
45 | Cc1ccc(Cn2ncc(Cl)c(Cl)c2=O)cc1 | active: 25.1 µM | 
46 | CCOc1cccc(C(=O)Nc2ccc3oc(Cc4ccc(Cl)cc4)nc3c2)c1 | inconclusive [inhibitor, single point] | 
47 | CCn1c(SCC(=O)N2CCCCC2)nc(O)cc1=O | inactive | 
48 | CCn1ccc(C(=O)Nc2ccc(S(=O)(=O)Nc3ccccc3OC)cc2)n1 | inconclusive [inhibitor, partial curve] | 
